# Test results: patent publication US20210238308A1 (Chugai, published 2021)
# T1: human TRIM21 PRYSPRY domain with N-terminal 6xHis tag (human)
# T1 construct: Expressed from pET28a in E. coli; also called hTRIM21
# T1 chain: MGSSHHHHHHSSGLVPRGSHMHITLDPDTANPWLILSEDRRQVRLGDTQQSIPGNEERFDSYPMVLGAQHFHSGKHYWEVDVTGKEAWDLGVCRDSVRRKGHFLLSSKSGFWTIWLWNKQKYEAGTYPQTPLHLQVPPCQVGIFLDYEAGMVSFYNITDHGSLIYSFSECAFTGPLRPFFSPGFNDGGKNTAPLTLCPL
# B1: 3D8VH-G1m/hT4VL-KT0.Avi I253Y.N315Q (antibody, human IgG1, kappa)
# heavy: EVQLVESGGGLVQPGGSLRLSCAASGYTFTSYVMHWVRQAPGKGLEWVSAINPYNDGNYYADSVKGRFTISRDNSRKTLYLQMNSLRAEDTAVYYCARGAYKRGYAMDYWGQGTTVTVSSASTKGPSVFPLAPSSKSTSGGTAALGCLVKDYFPEPVTVSWNSGALTSGVHTFPAVLQSSGLYSLSSVVTVPSSSLGTQTYICNVNHKPSNTKVDKKV[human IgG1 Fc with I253Y N315Q (EU numbers) omitted here]
# light: [about 200 residues omitted here]GGGGSGLNDIFEAQKIEWHE
# B2: 3D8VH-G1m/hT4VL-KT0.Avi I253Y.Q438E (antibody, human IgG1, kappa)
# heavy: EVQLVESGGGLVQPGGSLRLSCAASGYTFTSYVMHWVRQAPGKGLEWVSAINPYNDGNYYADSVKGRFTISRDNSRKTLYLQMNSLRAEDTAVYYCARGAYKRGYAMDYWGQGTTVTVSSASTKGPSVFPLAPSSKSTSGGTAALGCLVKDYFPEPVTVSWNSGALTSGVHTFPAVLQSSGLYSLSSVVTVPSSSLGTQTYICNVNHKPSNTKVDKKV[human IgG1 Fc with I253Y Q438E (EU numbers) omitted here]
# light: [about 200 residues omitted here]GGGGSGLNDIFEAQKIEWHE
# B3: 3D8VH-G1m/hT4VL-KT0.Avi I253Y.T437D (antibody, human IgG1, kappa)
# heavy: EVQLVESGGGLVQPGGSLRLSCAASGYTFTSYVMHWVRQAPGKGLEWVSAINPYNDGNYYADSVKGRFTISRDNSRKTLYLQMNSLRAEDTAVYYCARGAYKRGYAMDYWGQGTTVTVSSASTKGPSVFPLAPSSKSTSGGTAALGCLVKDYFPEPVTVSWNSGALTSGVHTFPAVLQSSGLYSLSSVVTVPSSSLGTQTYICNVNHKPSNTKVDKKV[human IgG1 Fc with I253Y T437D (EU numbers) omitted here]
# light: [about 200 residues omitted here]GGGGSGLNDIFEAQKIEWHE
# B4: 3D8VH-G1m/hT4VL-KT0.Avi I253Y.Y436T (antibody, human IgG1, kappa)
# heavy: EVQLVESGGGLVQPGGSLRLSCAASGYTFTSYVMHWVRQAPGKGLEWVSAINPYNDGNYYADSVKGRFTISRDNSRKTLYLQMNSLRAEDTAVYYCARGAYKRGYAMDYWGQGTTVTVSSASTKGPSVFPLAPSSKSTSGGTAALGCLVKDYFPEPVTVSWNSGALTSGVHTFPAVLQSSGLYSLSSVVTVPSSSLGTQTYICNVNHKPSNTKVDKKV[human IgG1 Fc with I253Y Y436T (EU numbers) omitted here]
# light: [about 200 residues omitted here]GGGGSGLNDIFEAQKIEWHE
# B5: 3D8VH-G1m/hT4VL-KT0.Avi L309D (antibody, human IgG1, kappa)
# heavy: EVQLVESGGGLVQPGGSLRLSCAASGYTFTSYVMHWVRQAPGKGLEWVSAINPYNDGNYYADSVKGRFTISRDNSRKTLYLQMNSLRAEDTAVYYCARGAYKRGYAMDYWGQGTTVTVSSASTKGPSVFPLAPSSKSTSGGTAALGCLVKDYFPEPVTVSWNSGALTSGVHTFPAVLQSSGLYSLSSVVTVPSSSLGTQTYICNVNHKPSNTKVDKKV[human IgG1 Fc with L309D (EU numbers) omitted here]
# light: [about 200 residues omitted here]GGGGSGLNDIFEAQKIEWHE
# B6: 3D8VH-G1m/hT4VL-KT0.Avi L314K (antibody, human IgG1, kappa)
# heavy: EVQLVESGGGLVQPGGSLRLSCAASGYTFTSYVMHWVRQAPGKGLEWVSAINPYNDGNYYADSVKGRFTISRDNSRKTLYLQMNSLRAEDTAVYYCARGAYKRGYAMDYWGQGTTVTVSSASTKGPSVFPLAPSSKSTSGGTAALGCLVKDYFPEPVTVSWNSGALTSGVHTFPAVLQSSGLYSLSSVVTVPSSSLGTQTYICNVNHKPSNTKVDKKV[human IgG1 Fc with L314K (EU numbers) omitted here]
# light: [about 200 residues omitted here]GGGGSGLNDIFEAQKIEWHE
# B7: 3D8VH-G1m/hT4VL-KT0.Avi L432P (antibody, human IgG1, kappa)
# heavy: EVQLVESGGGLVQPGGSLRLSCAASGYTFTSYVMHWVRQAPGKGLEWVSAINPYNDGNYYADSVKGRFTISRDNSRKTLYLQMNSLRAEDTAVYYCARGAYKRGYAMDYWGQGTTVTVSSASTKGPSVFPLAPSSKSTSGGTAALGCLVKDYFPEPVTVSWNSGALTSGVHTFPAVLQSSGLYSLSSVVTVPSSSLGTQTYICNVNHKPSNTKVDKKV[human IgG1 Fc with L432P (EU numbers) omitted here]
# light: [about 200 residues omitted here]GGGGSGLNDIFEAQKIEWHE
# B8: 3D8VH-G1m/hT4VL-KT0.Avi N315M (antibody, human IgG1, kappa)
# heavy: EVQLVESGGGLVQPGGSLRLSCAASGYTFTSYVMHWVRQAPGKGLEWVSAINPYNDGNYYADSVKGRFTISRDNSRKTLYLQMNSLRAEDTAVYYCARGAYKRGYAMDYWGQGTTVTVSSASTKGPSVFPLAPSSKSTSGGTAALGCLVKDYFPEPVTVSWNSGALTSGVHTFPAVLQSSGLYSLSSVVTVPSSSLGTQTYICNVNHKPSNTKVDKKV[human IgG1 Fc with N315M (EU numbers) omitted here]
# light: [about 200 residues omitted here]GGGGSGLNDIFEAQKIEWHE
# B9: 3D8VH-G1m/hT4VL-KT0.Avi N315M.L432P (antibody, human IgG1, kappa)
# heavy: EVQLVESGGGLVQPGGSLRLSCAASGYTFTSYVMHWVRQAPGKGLEWVSAINPYNDGNYYADSVKGRFTISRDNSRKTLYLQMNSLRAEDTAVYYCARGAYKRGYAMDYWGQGTTVTVSSASTKGPSVFPLAPSSKSTSGGTAALGCLVKDYFPEPVTVSWNSGALTSGVHTFPAVLQSSGLYSLSSVVTVPSSSLGTQTYICNVNHKPSNTKVDKKV[human IgG1 Fc with N315M L432P (EU numbers) omitted here]
# light: [about 200 residues omitted here]GGGGSGLNDIFEAQKIEWHE
# B10: 3D8VH-G1m/hT4VL-KT0.Avi N315M.M428F (antibody, human IgG1, kappa)
# heavy: EVQLVESGGGLVQPGGSLRLSCAASGYTFTSYVMHWVRQAPGKGLEWVSAINPYNDGNYYADSVKGRFTISRDNSRKTLYLQMNSLRAEDTAVYYCARGAYKRGYAMDYWGQGTTVTVSSASTKGPSVFPLAPSSKSTSGGTAALGCLVKDYFPEPVTVSWNSGALTSGVHTFPAVLQSSGLYSLSSVVTVPSSSLGTQTYICNVNHKPSNTKVDKKV[human IgG1 Fc with N315M M428F (EU numbers) omitted here]
# light: [about 200 residues omitted here]GGGGSGLNDIFEAQKIEWHE
# B11: 3D8VH-G1m/hT4VL-KT0.Avi N315M.Q438E (antibody, human IgG1, kappa)
# heavy: EVQLVESGGGLVQPGGSLRLSCAASGYTFTSYVMHWVRQAPGKGLEWVSAINPYNDGNYYADSVKGRFTISRDNSRKTLYLQMNSLRAEDTAVYYCARGAYKRGYAMDYWGQGTTVTVSSASTKGPSVFPLAPSSKSTSGGTAALGCLVKDYFPEPVTVSWNSGALTSGVHTFPAVLQSSGLYSLSSVVTVPSSSLGTQTYICNVNHKPSNTKVDKKV[human IgG1 Fc with N315M Q438E (EU numbers) omitted here]
# light: [about 200 residues omitted here]GGGGSGLNDIFEAQKIEWHE
# B12: 3D8VH-G1m/hT4VL-KT0.Avi N315M.T437D (antibody, human IgG1, kappa)
# heavy: EVQLVESGGGLVQPGGSLRLSCAASGYTFTSYVMHWVRQAPGKGLEWVSAINPYNDGNYYADSVKGRFTISRDNSRKTLYLQMNSLRAEDTAVYYCARGAYKRGYAMDYWGQGTTVTVSSASTKGPSVFPLAPSSKSTSGGTAALGCLVKDYFPEPVTVSWNSGALTSGVHTFPAVLQSSGLYSLSSVVTVPSSSLGTQTYICNVNHKPSNTKVDKKV[human IgG1 Fc with N315M T437D (EU numbers) omitted here]
# light: [about 200 residues omitted here]GGGGSGLNDIFEAQKIEWHE
# B13: 3D8VH-G1m/hT4VL-KT0.Avi N315M.Y436T (antibody, human IgG1, kappa)
# heavy: EVQLVESGGGLVQPGGSLRLSCAASGYTFTSYVMHWVRQAPGKGLEWVSAINPYNDGNYYADSVKGRFTISRDNSRKTLYLQMNSLRAEDTAVYYCARGAYKRGYAMDYWGQGTTVTVSSASTKGPSVFPLAPSSKSTSGGTAALGCLVKDYFPEPVTVSWNSGALTSGVHTFPAVLQSSGLYSLSSVVTVPSSSLGTQTYICNVNHKPSNTKVDKKV[human IgG1 Fc with N315M Y436T (EU numbers) omitted here]
# light: [about 200 residues omitted here]GGGGSGLNDIFEAQKIEWHE
# B14: 3D8VH-G1m/hT4VL-KT0.Avi N315Q (antibody, human IgG1, kappa)
# heavy: EVQLVESGGGLVQPGGSLRLSCAASGYTFTSYVMHWVRQAPGKGLEWVSAINPYNDGNYYADSVKGRFTISRDNSRKTLYLQMNSLRAEDTAVYYCARGAYKRGYAMDYWGQGTTVTVSSASTKGPSVFPLAPSSKSTSGGTAALGCLVKDYFPEPVTVSWNSGALTSGVHTFPAVLQSSGLYSLSSVVTVPSSSLGTQTYICNVNHKPSNTKVDKKV[human IgG1 Fc with N315Q (EU numbers) omitted here]
# light: [about 200 residues omitted here]GGGGSGLNDIFEAQKIEWHE
# B15: 3D8VH-G1m/hT4VL-KT0.Avi N315Q.L432P (antibody, human IgG1, kappa)
# heavy: EVQLVESGGGLVQPGGSLRLSCAASGYTFTSYVMHWVRQAPGKGLEWVSAINPYNDGNYYADSVKGRFTISRDNSRKTLYLQMNSLRAEDTAVYYCARGAYKRGYAMDYWGQGTTVTVSSASTKGPSVFPLAPSSKSTSGGTAALGCLVKDYFPEPVTVSWNSGALTSGVHTFPAVLQSSGLYSLSSVVTVPSSSLGTQTYICNVNHKPSNTKVDKKV[human IgG1 Fc with N315Q L432P (EU numbers) omitted here]
# light: [about 200 residues omitted here]GGGGSGLNDIFEAQKIEWHE
# Target: T1, human TRIM21 PRYSPRY domain with …
# Test: SPR, Ab captured on Protein L, hTRIM21 12.5-200 nM
Binder,Kd,koff,kon
B1,0.87 nM,0.00207 s⁻¹,2.38e+06 M⁻¹ s⁻¹
B2,0.576 nM,0.00235 s⁻¹,4.08e+06 M⁻¹ s⁻¹
B3,0.889 nM,0.00212 s⁻¹,2.39e+06 M⁻¹ s⁻¹
B4,1.84 nM,0.0025 s⁻¹,1.36e+06 M⁻¹ s⁻¹
B5,–,0.00288 s⁻¹,123000 M⁻¹ s⁻¹
B6,23.3 nM,0.00354 s⁻¹,152000 M⁻¹ s⁻¹
B7,22 nM,0.0379 s⁻¹,1.72e+06 M⁻¹ s⁻¹
B8,14.1 nM,0.0294 s⁻¹,2.09e+06 M⁻¹ s⁻¹
B9,5.33 nM,0.0068 s⁻¹,1.27e+06 M⁻¹ s⁻¹
B10,3.8 nM,0.00629 s⁻¹,1.66e+06 M⁻¹ s⁻¹
B11,2.71 nM,0.00787 s⁻¹,2.9e+06 M⁻¹ s⁻¹
B12,2.48 nM,0.0072 s⁻¹,2.91e+06 M⁻¹ s⁻¹
B13,4.27 nM,0.00426 s⁻¹,997000 M⁻¹ s⁻¹
B14,13.4 nM,0.0273 s⁻¹,2.03e+06 M⁻¹ s⁻¹
B15,5.2 nM,0.00745 s⁻¹,1.43e+06 M⁻¹ s⁻¹
